In US8304182B2, “Methods of identifying anti-cancer agents and uses thereof” (The Trustees of the University of Pennsylvania, priority 2003, dated 2012):

What was measured:
wild-type MEFs = conditions: wild-type cells, staurosporine, FIG. 3F
wild-type cells = conditions: 0.5 mM MNNG or 2 μM staurosporine, 9 h
bax^−/−bak^−/− cells = conditions: 0.5 mM MNNG or 2 μM staurosporine, 9 h
ATP = test: Determination of cellular ATP; type: cell-based, mouse; conditions: oligomycin 5 μg/ml, FIG. 7B

Row | Structure (SMILES) | cell death (wild-type MEFs) | morphologic features of cell death by electron microscopy (wild-type cells) | morphologic features of cell death by electron microscopy (bax^−/−bak^−/− cells) | ATP level on inhibition of oxidative phosphorylation (ATP; IL3-deprived bax^−/−bak^−/− cells) | ATP level on inhibition of oxidative phosphorylation (ATP; IL-3 treated bax^−/−bak^−/− cells)
1 | CN[C@@H]1C[C@H]2O[C@@](C)([C@@H]1OC)n1c3ccccc3c3c4c(c5c6ccccc6n2c5c31)C(=O)NC4 [staurosporine] | killed | apoptotic morphological changes | apoptotic features were not observed | – | –
2 | CC[C@H]1/C=C/C=C/C[C@@H](C)[C@H](O)[C@@](C)(O)C(=O)[C@@H](C)[C@H](O)[C@@H](C)C(=O)[C@@H](C)[C@H](O)[C@@H](C)/C=C/C(=O)O[C@@H]2[C@H](C)[C@H](CC1)O[C@]1(CC[C@H](C)[C@H](C[C@@H](C)O)O1)[C@H]2C [oligomycin] | – | – | – | fell dramatically | did not affect the ATP level
